# Assay results taken from US11919965B2, “Methods of treating multiple myeloma with bispecific anti-BCMA x anti-CD3 antibodies” (Regeneron Pharmaceuticals, Inc., priority 2019, dated 2024).
# B1: mAb16716: anti-BCMA antibody, HCVR/LCVR SEQ ID NOs 18/26 (antibody, V domains shown)
# VH: [letters of about 100 residues not shown]RAGDNWNWFDPWGQGTLVTVSS
# VL: DIQMTQSPSSVSASLGDRVTITCRASQGISSWLAWYQRKPGKAPKLLIYAASSLQSGVPSRFSGSGSGADFTLTISSLQPEDFATYYCQQAKSVPFTFGPGTKVDIK
# Legend:
# Test in all cases: SPR (Biacore 4000) binding kinetics at 25° C.
# human BCMA-MFC = molecular target: T1, human BCMA-MFC (Homo sapiens, UniProt Q02223)
# T1 construct: extracellular domain of human BCMA expressed with C-terminal mFc tag (human BCMA-MFC)
# Procedure: (§1) The CM5 Biacore sensor surface was derivatized by amine coupling with a monoclonal mouse anti-human Fc antibody (GE, #BR-1008-39) to capture purified anti-BCMA mAbs and anti-BCMA×anti-CD3 bispecific mAbs. All Biacore binding studies were performed in a buffer composed of 0.01M HEPES pH 7.4, 0.15M NaCl, 3 mM EDTA, 0.05% v/v Surfactant P20 (HBS-ET running buffer). […] Antigen samples were then injected over the anti-BCMA and anti-BCMA×anti-CD3 bispecific mAbs captured surfaces at a flow rate of 30 μL/minute. Antibody-reagent association was monitored for 5 minutes while dissociation in HBS-ET running buffer was monitored for 10 minutes. All of the binding kinetics experiments were performed at 25° C. Kinetic association (ka) and dissociation (kd) rate constants were determined by fitting the real-time sensorgrams to a 1:1 binding model using Scrubber 2.0c curve fitting software. Binding dissociation equilibrium constants (KD) and dissociative half-lives (t1/2) were calculated from the kinetic rate constants as: […]
# human BCMA-MMH = molecular target: T2, human BCMA-MMH (Homo sapiens, UniProt Q02223)
# T2 construct: extracellular domain of human BCMA expressed with C-terminal myc-myc-hexahistidine tag (human BCMA-MMH)
# Procedure: as §1
# monkey BCMA-MFC = conditions: antibody captured on anti-human Fc
# Procedure: as §1
# monkey BCMA-MMH = molecular target: monkey BCMA-MMH
# Procedure: as §1
# mouse BCMA-MFC = molecular target: T3, mouse BCMA-MFC (Mus musculus, UniProt O88472)
# T3 construct: 30 nM BCMA expressed with C-terminal mFc tag (mouse BCMA-MFC)
# Procedure: as §1
# T2 sequence (Q02223 with tags, fused parts or gaps): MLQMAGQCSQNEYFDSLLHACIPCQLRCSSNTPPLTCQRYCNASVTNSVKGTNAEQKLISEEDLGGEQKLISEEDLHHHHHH
# T3 sequence (O88472 with tags, fused parts or gaps): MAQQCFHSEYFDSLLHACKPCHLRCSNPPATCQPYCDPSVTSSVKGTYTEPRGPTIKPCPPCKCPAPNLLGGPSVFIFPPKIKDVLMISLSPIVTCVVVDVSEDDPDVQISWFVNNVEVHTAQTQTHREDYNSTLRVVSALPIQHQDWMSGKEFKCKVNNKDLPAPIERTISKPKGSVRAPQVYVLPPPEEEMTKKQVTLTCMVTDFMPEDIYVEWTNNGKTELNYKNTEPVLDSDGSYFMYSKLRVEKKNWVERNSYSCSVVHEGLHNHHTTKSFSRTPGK
# T1 sequence (Q02223 with tags, fused parts or gaps): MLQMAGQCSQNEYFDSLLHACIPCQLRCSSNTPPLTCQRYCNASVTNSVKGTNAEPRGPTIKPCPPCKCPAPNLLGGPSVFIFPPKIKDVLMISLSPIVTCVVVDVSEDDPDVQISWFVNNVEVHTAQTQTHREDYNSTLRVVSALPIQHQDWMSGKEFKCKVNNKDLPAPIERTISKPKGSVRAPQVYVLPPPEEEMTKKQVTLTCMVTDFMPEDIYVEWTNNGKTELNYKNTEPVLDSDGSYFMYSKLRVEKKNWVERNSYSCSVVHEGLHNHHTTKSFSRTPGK
molecule,measurement,setting,value
B1,ka,human BCMA-MFC,862000 M⁻¹ s⁻¹
same,kd,human BCMA-MFC,8.35e-05 s⁻¹
same,ka,human BCMA-MMH,841000 M⁻¹ s⁻¹
same,kd,human BCMA-MMH,0.00299 s⁻¹
same,30 nM mfBCMA.mFc Bind (RU),monkey BCMA-MFC,3.2 RU
same,Kd,monkey BCMA-MMH,> 90 nM
same,ka,mouse BCMA-MFC,205000 M⁻¹ s⁻¹
same,kd,mouse BCMA-MFC,0.00385 s⁻¹
